The values that follow come from the supplement of paper PMC12582362.

Counter-ions that a name gives are not always drawn. Out of some 1,500 compounds screened, about 30 (2%) showed activity.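 The calls were made as follows: active = robust z-score below -2; a few such results were not called.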 This is one part of the list.

The test concerns optoTopBP1 Flp-In 293 T-REx (HEK293) cells. As to the kind of experiment: light-induced TopBP1 condensate (nuclear foci) count, plate-normalised robust z-score vs non-control wells; higher = more TopBP1 condensates (negative = condensation inhibitor), active = hit call of the paper. The following applies: 10 µM; incubation time 2 h.
Consider `N[C@@H](Cc1ccc(O)c(O)c1)C(=O)O` [Levodopa], for which the “light-induced TopBP1 condensate (z-score)” value was inactive: 1.84.
On to `O=C(NC(Cc1cc(=O)[nH]c2ccccc12)C(=O)O)c1ccc(Cl)cc1` (stereo not given) [Rebamipide], for which the “light-induced TopBP1 condensate (z-score)” value is inactive: 0.803.
As to `C[N+](C)(C)CCOC(N)=O` [Carbachol], the “light-induced TopBP1 condensate (z-score)” value is inactive: -0.457.
Turning to `CC(C)(C)NC[C@H](O)COc1cccc2c1CCCC2=O` [(-) -Levobunolol hydrochloride], the “light-induced TopBP1 condensate (z-score)” value is inactive: 0.421.
On to `NS(=O)(=O)c1cc(C(=O)NN2C[C@@H]3[C@H]4CC[C@H](C4)[C@@H]3C2)ccc1Cl` [Tripamide], for which the “light-induced TopBP1 condensate (z-score)” value is inactive: -0.842.
In the case of `Nc1ncn(C2OC(CO)C(O)C2O)c(=O)n1` (stereo not given) [Azacytidine-5], the “light-induced TopBP1 condensate (z-score)” value was inactive: 0.0662.
Turning to `CCOC(=O)C1=C(C)NC(C)=C(C(=O)OC)C1c1cccc(Cl)c1Cl` (stereo not given) [Felodipine], the “light-induced TopBP1 condensate (z-score)” value was inactive: -0.577.
Turning to `C[C@H](CCC(=O)O)[C@H]1CC[C@H]2[C@@H]3C(=O)C[C@@H]4CC(=O)CC[C@]4(C)[C@H]3CC(=O)[C@]12C` [Dehydrocholic acid], the “light-induced TopBP1 condensate (z-score)” value was inactive: 0.409.
For `O=C1c2c(O)ccc(O)c2C(=O)c2c(NCCNCCO)ccc(NCCNCCO)c21` [Mitoxantrone dihydrochloride], the “light-induced TopBP1 condensate (z-score)” value was inactive: 0.271.
`CCN(CC)CCNC(=O)c1cc(Br)c(N)cc1OC` [Bromopride]: the “light-induced TopBP1 condensate (z-score)” value is inactive: 0.208.
In the case of `CCCCC(=O)N(Cc1ccc(-c2ccccc2-c2nnn[nH]2)cc1)[C@H](C(=O)O)C(C)C` [Valsartan], the “light-induced TopBP1 condensate (z-score)” value is inactive: -1.04.
As to `OC(CCN1CCCCC1)(c1ccccc1)c1ccccc1` [Pridinol methanesulfonate salt], the “light-induced TopBP1 condensate (z-score)” value is inactive: -0.572.
Turning to `OCC(CO)N[C@H]1C[C@](O)(CO)[C@@H](O)[C@H](O)[C@H]1O` [Voglibose], the “light-induced TopBP1 condensate (z-score)” value was inactive: 1.28.
The value for `CC(C)NNC(=O)c1ccncc1` [Iproniazide phosphate] was inactive: 0.572; that for `O=C1c2cccc(O)c2C(=O)c2c(O)cccc21` [1,8-Dihydroxyanthraquinone] was active: -2.97; that for `CC12CC3CC(C)(C1)CC(N)(C3)C2` [Memantine Hydrochloride] was inactive: 0.9.
As for `C#C[C@]1(O)CC[C@H]2[C@@H]3CCC4=Cc5oncc5C[C@]4(C)[C@H]3CC[C@@]21C` [Danazol], the “light-induced TopBP1 condensate (z-score)” value was inactive: 0.344.
Turning to `O=C(Nc1ccc([N+](=O)[O-])cc1Cl)c1cc(Cl)ccc1O` [Niclosamide], the “light-induced TopBP1 condensate (z-score)” value is inactive: -1.32.
In the case of `CCOc1ccc(Cc2nccc3cc(OCC)c(OCC)cc23)cc1OCC` [Ethaverine hydrochloride], the “light-induced TopBP1 condensate (z-score)” value was inactive: -0.0348.
In the case of `CCC[C@@H]1C[C@@H](C(=O)N[C@@H]([C@H]2O[C@H](SC)[C@H](O)[C@@H](O)[C@H]2O)[C@@H](C)O)N(C)C1` [Lincomycin hydrochloride], the “light-induced TopBP1 condensate (z-score)” value is inactive: -0.962.
